# Some of the results follow.
# Biological target: T1, MBP-FoxP1dN (Mus musculus, UniProt P58462 326-579)
# T1 sequence: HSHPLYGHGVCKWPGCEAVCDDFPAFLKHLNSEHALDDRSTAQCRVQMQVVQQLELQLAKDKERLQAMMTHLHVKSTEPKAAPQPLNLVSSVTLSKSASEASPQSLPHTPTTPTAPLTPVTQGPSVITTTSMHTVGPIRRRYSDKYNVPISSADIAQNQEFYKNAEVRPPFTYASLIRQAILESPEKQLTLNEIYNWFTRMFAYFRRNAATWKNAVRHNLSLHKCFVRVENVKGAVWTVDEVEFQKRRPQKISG
# Experiment: PD-seq (MBP pull-down with sequencing); 20 mM Tris-HCl pH 7.5, 100 mM NaCl, 1.5 mM MgCl2, 0.4 uM protein, 0.1 uM dsDNA library, 30 min, room temperature, amylose pull-down; high values mean tight binding
# Conditions: protein: recombinant; tags: His6-MBP; chain copies: 2; dsDNA, one strand shown
# In short: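 Binding is reads-per-million enrichment of pull-down over input, with replicates pooled. It comes from 30 min room-temperature incubation in Tris pH 7.5 buffer with NaCl and MgCl2 of 0.4 µM His6-MBP-tagged, N-terminally truncated mouse FoxP3 or FoxP1 fragment from E. coli with 0.1 µM Klenow-filled degenerate double-stranded DNA library, followed by amylose resin capture, three washes and Illumina sequencing of the released DNA.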
row,Sequence,binding signal
1,GATGATTGTTCTCCCAGCTGATGAATTAGCTGCGTCGAGTAAACAAATTTTCCTAATCTTTCTGTTCAAGCGCCATCTAC,1.01 RPM ratio (pull-down/input)
2,GATGATTGTTCTCCCAGCTGATGAATTCCGTTGTTCGAGTAAACAAATTTTCCTAATCTTTCTGTTCAAGCGCCATCTAC,1.12 RPM ratio (pull-down/input)
3,GATGATTGTTCTCCCAGCTGATGAATTTGGTAGTTCGAGTAAACAAATTTTCCTAATCTTTCTGTTCAAGCGCCATCTAC,0.932 RPM ratio (pull-down/input)
4,GATGATTGTTCTCCCAGCTGATGAATTTCCATCGTCGAGTAAACAAATTTTCCTAATCTTTCTGTTCAAGCGCCATCTAC,0.808 RPM ratio (pull-down/input)
5,GATGATTGTTCTCCCAGCTGATGAATTATTACTGTCGAGTAAACAAATTTTCCTAATCTTTCTGTTCAAGCGCCATCTAC,1.17 RPM ratio (pull-down/input)
6,GATGATTGTTCTCCCAGCTGATGAATTACGCGTATCGAGTAAACAAATTTTCCTAATCTTTCTGTTCAAGCGCCATCTAC,1.12 RPM ratio (pull-down/input)
7,GATGATTGTTCTCCCAGCTGATGAATTGGGTCGATCGAGTAAACAAATTTTCCTAATCTTTCTGTTCAAGCGCCATCTAC,0.929 RPM ratio (pull-down/input)
8,GATGATTGTTCTCCCAGCTGATGAATTGCCCGACTCGAGTAAACAAATTTTCCTAATCTTTCTGTTCAAGCGCCATCTAC,0.806 RPM ratio (pull-down/input)
9,GATGATTGTTCTCCCAGCTGATGAATTGTGGGTGTCGAGTAAACAAATTTTCCTAATCTTTCTGTTCAAGCGCCATCTAC,1.04 RPM ratio (pull-down/input)
10,GATGATTGTTCTCCCAGCTGATGAATTGAGGCCCTCGAGTAAACAAATTTTCCTAATCTTTCTGTTCAAGCGCCATCTAC,0.796 RPM ratio (pull-down/input)
11,GATGATTGTTCTCCCAGCTGATGAATTTCCCGGATCGAGTAAACAAATTTTCCTAATCTTTCTGTTCAAGCGCCATCTAC,0.83 RPM ratio (pull-down/input)
12,GATGATTGTTCTCCCAGCTGATGAATTACACAACTCGAGTAAACAAATTTTCCTAATCTTTCTGTTCAAGCGCCATCTAC,1.43 RPM ratio (pull-down/input)
13,GATGATTGTTCTCCCAGCTGATGAATTCTTTGGATCGAGTAAACAAATTTTCCTAATCTTTCTGTTCAAGCGCCATCTAC,0.851 RPM ratio (pull-down/input)
14,GATGATTGTTCTCCCAGCTGATGAATTGCGGACGTCGAGTAAACAAATTTTCCTAATCTTTCTGTTCAAGCGCCATCTAC,1.02 RPM ratio (pull-down/input)
15,GATGATTGTTCTCCCAGCTGATGAATTGACCGAGTCGAGTAAACAAATTTTCCTAATCTTTCTGTTCAAGCGCCATCTAC,0.835 RPM ratio (pull-down/input)
16,GATGATTGTTCTCCCAGCTGATGAATTTCGGTCGTCGAGTAAACAAATTTTCCTAATCTTTCTGTTCAAGCGCCATCTAC,0.902 RPM ratio (pull-down/input)

row,Sequence,binding signal
1,GATGATTGTTCTCCCAGCTGATGAATTAAACGGTTCGAGTAAACAAATTTTCCTAATCTTTCTGTTCAAGCGCCATCTAC,0.902 RPM ratio (pull-down/input)
2,GATGATTGTTCTCCCAGCTGATGAATTGTACATATCGAGTAAACAAATTTTCCTAATCTTTCTGTTCAAGCGCCATCTAC,1.6 RPM ratio (pull-down/input)
3,GATGATTGTTCTCCCAGCTGATGAATTTTAGGTCTCGAGTAAACAAATTTTCCTAATCTTTCTGTTCAAGCGCCATCTAC,0.798 RPM ratio (pull-down/input)
4,GATGATTGTTCTCCCAGCTGATGAATTTCCTCGATCGAGTAAACAAATTTTCCTAATCTTTCTGTTCAAGCGCCATCTAC,0.856 RPM ratio (pull-down/input)
5,GATGATTGTTCTCCCAGCTGATGAATTATCGCTGTCGAGTAAACAAATTTTCCTAATCTTTCTGTTCAAGCGCCATCTAC,1.05 RPM ratio (pull-down/input)
6,GATGATTGTTCTCCCAGCTGATGAATTCTGTCCCTCGAGTAAACAAATTTTCCTAATCTTTCTGTTCAAGCGCCATCTAC,0.907 RPM ratio (pull-down/input)
7,GATGATTGTTCTCCCAGCTGATGAATTCTCCTCGTCGAGTAAACAAATTTTCCTAATCTTTCTGTTCAAGCGCCATCTAC,0.8 RPM ratio (pull-down/input)
8,GATGATTGTTCTCCCAGCTGATGAATTGTTGTTATCGAGTAAACAAATTTTCCTAATCTTTCTGTTCAAGCGCCATCTAC,2.91 RPM ratio (pull-down/input)
9,GATGATTGTTCTCCCAGCTGATGAATTACGCTATTCGAGTAAACAAATTTTCCTAATCTTTCTGTTCAAGCGCCATCTAC,1.05 RPM ratio (pull-down/input)
10,GATGATTGTTCTCCCAGCTGATGAATTCGTATAGTCGAGTAAACAAATTTTCCTAATCTTTCTGTTCAAGCGCCATCTAC,0.905 RPM ratio (pull-down/input)
11,GATGATTGTTCTCCCAGCTGATGAATTTAGAGCGTCGAGTAAACAAATTTTCCTAATCTTTCTGTTCAAGCGCCATCTAC,0.997 RPM ratio (pull-down/input)
12,GATGATTGTTCTCCCAGCTGATGAATTGTAGTTGTCGAGTAAACAAATTTTCCTAATCTTTCTGTTCAAGCGCCATCTAC,1.69 RPM ratio (pull-down/input)
13,GATGATTGTTCTCCCAGCTGATGAATTAGAGGGCTCGAGTAAACAAATTTTCCTAATCTTTCTGTTCAAGCGCCATCTAC,0.8 RPM ratio (pull-down/input)
14,GATGATTGTTCTCCCAGCTGATGAATTACGCTACTCGAGTAAACAAATTTTCCTAATCTTTCTGTTCAAGCGCCATCTAC,1.05 RPM ratio (pull-down/input)
15,GATGATTGTTCTCCCAGCTGATGAATTCATCGAGTCGAGTAAACAAATTTTCCTAATCTTTCTGTTCAAGCGCCATCTAC,0.817 RPM ratio (pull-down/input)
